Reference: the supplement of paper PMC8728848
Some of the results follow.

Key:
Experiment in all cases: glycan array binding signal (z-score within array); higher = stronger binding
Conditions in all cases: glycan notation: IUPAC condensed, linker removed
[1] = target: Gal(b1-4)GlcNAc(b1-2)[Gal(b1-4)GlcNAc(b1-4)]Man(a1-3)[Gal(b1-4)GlcNAc(b1-2)[Gal(b1-4)GlcNAc(b1-6)]Man(a1-6)]Man(b1-4)GlcNAc(b1-4)GlcNAc
Outline: (§1)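 The binding signal is a Z-score computed within each array. Data were drawn from 3228 arrays in the Consortium for Functional Glycomics database, restricted to those with a known protein sequence. Scores were averaged over arrays of the same protein sequence at different concentrations or buffers, and over linkers, and negative values can be taken as non-binding.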

[2] = target: Gal(b1-4)GlcNAc(b1-2)[Gal(b1-4)GlcNAc(b1-4)]Man(a1-3)[GlcNAc(b1-4)][Gal(b1-4)GlcNAc(b1-2)Man(a1-6)]Man(b1-4)GlcNAc(b1-4)GlcNAc
Outline: as §1

[3] = target: Gal(b1-4)GlcNAc(b1-2)[Gal(b1-4)GlcNAc(b1-4)]Man(a1-3)[GlcNAc(b1-4)][Gal(b1-4)GlcNAc(b1-2)[Gal(b1-4)GlcNAc(b1-6)]Man(a1-6)]Man(b1-4)GlcNAc(b1-4)GlcNAc
Outline: as §1

[4] = target: Gal(b1-4)GlcNAc(b1-2)[Gal(b1-4)GlcNAc(b1-6)]Man(a1-6)[Gal(b1-4)GlcNAc(b1-2)Man(a1-3)]Man(b1-4)GlcNAc(b1-4)GlcNAc
Outline: as §1

[5] = target: Gal(b1-4)GlcNAc(b1-2)[Gal(b1-4)GlcNAc(b1-6)]Man(a1-6)[GlcNAc(b1-4)][Gal(b1-4)GlcNAc(b1-2)Man(a1-3)]Man(b1-4)GlcNAc(b1-4)GlcNAc
Outline: as §1

[6] = target: Gal(b1-4)GlcNAc(b1-3)Gal(b1-3)GlcNAc
Outline: as §1

[7] = target: Gal(b1-4)GlcNAc(b1-3)Gal(b1-4)Glc
Outline: as §1

[8] = target: Gal(b1-4)GlcNAc(b1-3)Gal(b1-4)GlcNAc
Outline: as §1

[9] = target: Gal(b1-4)GlcNAc(b1-3)Gal(b1-4)GlcNAc(b1-3)Gal(b1-4)GlcNAc
Outline: as §1

[10] = target: Gal(b1-4)GlcNAc(b1-3)Gal(b1-4)[Fuc(a1-3)GlcNAc(b1-6)]Gal(b1-4)Glc
Outline: as §1

[11] = target: Gal(b1-4)GlcNAc(b1-3)Gal(b1-4)[Fuc(a1-3)]GlcNAc(b1-3)Gal(b1-4)[Fuc(a1-3)]GlcNAc
Outline: as §1

[12] = target: Gal(b1-4)GlcNAc(b1-3)GalNAc
Outline: as §1

[13] = target: Gal(b1-4)GlcNAc(b1-3)[Gal(b1-4)GlcNAc(b1-6)]Gal(b1-4)GlcNAc
Outline: as §1

[14] = target: Gal(b1-4)GlcNAc(b1-3)[Gal(b1-4)GlcNAc(b1-6)]GalNAc
Outline: as §1

[15] = target: Gal(b1-4)GlcNAc(b1-3)[GlcNAc(b1-6)]Gal(b1-4)GlcNAc
Outline: as §1

[16] = target: Gal(b1-4)GlcNAc(b1-6)Gal(b1-4)GlcNAc
Outline: as §1

[17] = target: Gal(b1-4)GlcNAc(b1-6)Gal(b1-4)GlcNAc(b1-6)GalNAc
Outline: as §1

[18] = target: Gal(b1-4)GlcNAc(b1-6)GalNAc
Outline: as §1

[19] = target: Gal(b1-4)GlcNAc(b1-6)[Gal(b1-3)]GalNAc
Outline: as §1

[20] = target: Gal(b1-6)Gal
Outline: as §1

[21] = target: Gal3S(b1-3)GalNAc
Outline: as §1

[22] = target: Gal3S(b1-3)GlcNAc
Outline: as §1

[23] = target: Gal3S(b1-3)[Fuc(a1-4)]GlcNAc
Outline: as §1

[24] = target: Gal3S(b1-4)Glc
Outline: as §1

[25] = target: Gal3S(b1-4)Glc6S
Outline: as §1

[26] = target: Gal3S(b1-4)GlcNAc
Outline: as §1

[27] = target: Gal3S(b1-4)GlcNAc6S
Outline: as §1

[28] = target: Gal3S(b1-4)[Fuc(a1-3)]Glc
Outline: as §1

[29] = target: Gal3S(b1-4)[Fuc(a1-3)]Glc6S
Outline: as §1

[30] = target: Gal3S4S(b1-4)GlcNAc
Outline: as §1

[31] = target: Gal3S6S(b1-4)GlcNAc
Outline: as §1

[32] = target: Gal3S6S(b1-4)GlcNAc6S
Outline: as §1

[33] = target: Gal4S(b1-4)GlcNAc
Outline: as §1

[34] = target: Gal4S6S(b1-4)GlcNAc
Outline: as §1

[35] = target: Gal6S(b1-3)GlcNAc
Outline: as §1

[36] = target: Gal6S(b1-3)GlcNAc6S
Outline: as §1

[37] = target: Gal6S(b1-4)Glc
Outline: as §1

[38] = target: Gal6S(b1-4)Glc6S
Outline: as §1

[39] = target: Gal6S(b1-4)GlcNAc
Outline: as §1

[40] = target: Gal6S(b1-4)GlcNAc6S
Outline: as §1

[41] = target: GalNAc(a1-3)Gal
Outline: as §1

[42] = target: GalNAc(a1-3)GalNAc
Outline: as §1

[43] = target: GalNAc(a1-3)GalNAc(b1-3)Gal(a1-4)Gal(b1-4)Glc
Outline: as §1

[44] = target: GalNAc(a1-3)GalNAc(b1-3)Gal(a1-4)Gal(b1-4)GlcNAc
Outline: as §1

[45] = target: GalNAc(b1-3)Gal
Outline: as §1

B1: BC2L-A (Burkholderia cenocepacia), Q1BKJ8_BURCA (protein)
chain: ADSQTSSNRAGEFSIPPNTDFRAIFFANAAEQQHIKLFIGDSQEPAAYHKLTTRDGPREATLNSGNGKIRFEVSVNGKPSATDARLAPINGKKSDGSPFTVNFGIVVSEDGHDSDYNDGIVVLQWPIG
glycan array binding signal (z-score) [1]: -0.028 | glycan array binding signal (z-score) [2]: -0.219 | glycan array binding signal (z-score) [3]: -0.22 | glycan array binding signal (z-score) [4]: 0.336 | glycan array binding signal (z-score) [5]: -0.095 | glycan array binding signal (z-score) [6]: -0.299 | glycan array binding signal (z-score) [7]: -0.283 | glycan array binding signal (z-score) [8]: -0.284 | glycan array binding signal (z-score) [9]: -0.269 | glycan array binding signal (z-score) [10]: -0.219 | glycan array binding signal (z-score) [11]: -0.026 | glycan array binding signal (z-score) [12]: -0.271 | glycan array binding signal (z-score) [13]: -0.298 | glycan array binding signal (z-score) [14]: -0.223 | glycan array binding signal (z-score) [15]: -0.292 | glycan array binding signal (z-score) [16]: -0.3 | glycan array binding signal (z-score) [17]: -0.327 | glycan array binding signal (z-score) [18]: -0.255 | glycan array binding signal (z-score) [19]: -0.238 | glycan array binding signal (z-score) [20]: -0.22 | glycan array binding signal (z-score) [21]: -0.29 | glycan array binding signal (z-score) [22]: 0.002 | glycan array binding signal (z-score) [23]: 0.321 | glycan array binding signal (z-score) [24]: 0.214 | glycan array binding signal (z-score) [25]: -0.018 | glycan array binding signal (z-score) [26]: -0.245 | glycan array binding signal (z-score) [27]: -0.282 | glycan array binding signal (z-score) [28]: -0.211 | glycan array binding signal (z-score) [29]: -0.215 | glycan array binding signal (z-score) [30]: -0.296 | glycan array binding signal (z-score) [31]: 0.19 | glycan array binding signal (z-score) [32]: 0.198 | glycan array binding signal (z-score) [33]: -0.276 | glycan array binding signal (z-score) [34]: -0.292 | glycan array binding signal (z-score) [35]: -0.218 | glycan array binding signal (z-score) [36]: -0.215 | glycan array binding signal (z-score) [37]: -0.291 | glycan array binding signal (z-score) [38]: -0.287 | glycan array binding signal (z-score) [39]: -0.291 | glycan array binding signal (z-score) [40]: -0.3 | glycan array binding signal (z-score) [41]: -0.292 | glycan array binding signal (z-score) [42]: -0.156 | glycan array binding signal (z-score) [43]: -0.215 | glycan array binding signal (z-score) [44]: -0.219 | glycan array binding signal (z-score) [45]: -0.298
